{
  "source": "PubChem BioAssay AID493014",
  "about": "(National Center for Advancing Translational Sciences (NCATS), 2011)",
  "note": "The whole screen tested about 340,000 compounds, of which about 170 (0.05%) were called active. Not shown: some 26% with an inconclusive outcome. The call rests on the fitted dose curve; in most records, active means well fitted inhibition curve with a large enough effect in the signal ratio, with a control signal flat (not every such curve was filed as active); inconclusive means small, poorly fitted or top-dose-only effect, or effect the other way, or a change in a side signal; inactive means flat fitted curve, though single readings scatter; the % refers to the signal ratio. This is a selection; strong and weak results do not stand in their true shares. Potency means the concentration at half of the fitted maximal effect.",
  "data": [
    {"experiment": "qHTS Assay to Find Inhibitors of Chronic Active B-Cell Receptor Signaling;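 on activity change, negative = inhibition: plate controls were basal doxycycline-induced cells for no effect and cells given 10 µM MG132 for full effect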", "settings": "ABC-DLBCL IkBa-CBG/CBR reporter, luminescence ratio (green luciferase fused to IkBa over red control in TMD8 lymphoma cells), 4 h; series mostly up to 46.1 µM; activity change, negative = inhibition: at the top concentration", "procedure,_shortened": "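TMD8 ABC-DLBCL cells carrying doxycycline-inducible green luciferase fused to IkappaBalpha plus unfused red luciferase were exposed to compounds (up to 46 uM) for 4 hrs at 37C. Activity came from the overlap-corrected green/red luminescence ratio.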", "values": [
      {"smiles": "COC(=O)Nc1ccc2c(c1)N(C(=O)CCN1CCN3CCCC3C1)c1ccccc1CC2", "note": "(stereo not drawn)", "activity change, negative = inhibition": "inactive: -1.68%"},
      {"smiles": "Cc1ccc(N/N=C(\\Cc2nc3ccccc3[nH]2)c2ccccc2)cc1", "Potency": "active: 23.1 µM"},
      {"smiles": "COc1ccc2cc([C@@H](C)C(=O)O)ccc2c1", "activity change, negative = inhibition": "inactive: -22.2%"},
      {"smiles": "O=C(C1=C[C@H](c2ccc(C(F)(F)F)cc2)C[C@H](OCc2ccc(CO)cc2)O1)N1CCN(Cc2ccccc2)CC1", "activity change, negative = inhibition": "inactive: 7.7%"},
      {"smiles": "CC1CNCCN1S(=O)(=O)c1cccc2cnccc12", "note": "(stereo not drawn)", "activity change, negative = inhibition": "inactive: -6.67%"},
      {"smiles": "O=C(Cc1ccc(-n2c(=O)c3ccccc3n(Cc3ccccc3Cl)c2=O)cc1)NCC1CCCO1", "note": "(stereo not drawn)", "Potency": "active: 2.82 µM"},
      {"smiles": "Cc1cc2c(s1)c1cnn(-c3ccccc3)c(=O)c1n2C", "activity change, negative = inhibition": "inactive: 0.123%"},
      {"smiles": "CCOC(=O)[C@@H]1[C@H]2COc3ccc(Br)cc3[C@@H]2N2C(=O)N(c3ccc(Cl)cc3)C(=O)[C@@]12C", "activity change, negative = inhibition": "inactive: 0.68%"},
      {"smiles": "O=C(Nc1ccccc1)C1=C[C@H](c2ccc(C(F)(F)F)cc2)C[C@H](OCc2ccc(CO)cc2)O1", "activity change, negative = inhibition": "inactive: -1.87%"},
      {"smiles": "Nc1ncnc2c1ncn2C1O[C@H](CO)[C@@H](O)[C@@H]1O", "note": "(stereo partly drawn)", "activity change, negative = inhibition": "inactive: -1.78%"},
      {"smiles": "COc1ccc(NC(=O)N(C)C[C@H]2Oc3ccc(NC(=O)CCN4CCOCC4)cc3C(=O)N([C@H](C)CO)C[C@@H]2C)cc1", "activity change, negative = inhibition": "inactive: 0.254%"},
      {"smiles": "CN(C)S(=O)(=O)Nc1cccc(Br)c1", "activity change, negative = inhibition": "inactive: 2.06%"},
      {"smiles": "O=S1(=O)c2ccc(Br)cc2N2CCC[C@H]2CN1Cc1ccccc1", "activity change, negative = inhibition": "inactive: -2.1%"},
      {"smiles": "O=C1C2C3c4ccccc4C(c4ccccc43)[C@@H]2c2nc3ccccc3n21", "note": "(stereo partly drawn)", "activity change, negative = inhibition": "inactive: 3.83%"},
      {"smiles": "CCN1C(=O)[C@@H]2[C@@H](c3ccc(-c4ccc(F)cc4)c(OC)c3)N3CCCC[C@@]3(C(=O)OC)[C@@H]2C1=O", "activity change, negative = inhibition": "inactive: -0.673%"},
      {"smiles": "COc1cc(OC)cc(C(=O)N/N=C/c2ccc(OC)c(COc3ccc(F)cc3)c2)c1", "Potency": "active: 10 µM"},
      {"smiles": "O=C(C1=C[C@H](c2coc3ccccc3c2=O)C[C@H](OCc2ccc(CO)cc2)O1)N1CCN(Cc2ccc3c(c2)OCO3)CC1", "activity change, negative = inhibition": "inactive: -2.42%"},
      {"smiles": "CCOc1ccc2nc(NS(=O)(=O)Cc3ccccc3)sc2c1", "Potency": "active: 7.31 µM"},
      {"smiles": "C=CCC[C@H](Cc1ccc(F)cc1)C(=O)OC[C@@H](C)NC(=O)[C@@H](CC=C)CC(=O)N[C@@H](CO)Cc1ccccc1", "activity change, negative = inhibition": "inactive: 0.112%"},
      {"smiles": "C[C@]12CC[C@@H]3c4ccc(O)cc4CC[C@H]3[C@@H]1C[C@@H](O)[C@@H]2O", "activity change, negative = inhibition": "inactive: -2.86%"},
      {"smiles": "O=S(=O)(c1cccc(C(F)(F)F)c1)N(CCCN1CCOCC1)Cc1cccs1", "activity change, negative = inhibition": "inactive: 1.11%"},
      {"smiles": "CCOC(=O)[C@@H]1[C@H]2COc3ccccc3[C@@H]2N2C(=O)N(c3cccc(Cl)c3)C(=O)[C@@]12C", "activity change, negative = inhibition": "inactive: 14.4%"},
      {"smiles": "CC(C)(O)[C@H](O)COc1c2ccoc2cc2oc(=O)ccc12", "activity change, negative = inhibition": "inactive: 1.61%"},
      {"smiles": "CCN1C(=NCC(C)C)N[C@@H](c2cccc(C(F)(F)F)c2)C(C(=O)OC)=C1C", "activity change, negative = inhibition": "inactive: -23.2%"},
      {"smiles": "Cc1ccc(S(=O)(=O)N2CCC[C@H]2C(=O)OCC(=O)Nc2ccc3c(c2)OCO3)cc1", "activity change, negative = inhibition": "inactive: -3.02%"},
      {"smiles": "Cc1ccc(C)c(CN2CCCN(Cc3cc(C)ccc3C)S2(=O)=O)c1", "activity change, negative = inhibition": "inactive: -12.4%"},
      {"smiles": "O=C(CCSCc1ccccc1Cl)N1CCN(c2cccc(Cl)c2)CC1", "activity change, negative = inhibition": "inactive: 10.9%"},
      {"smiles": "O=C(Cc1cc(=O)[nH][nH]1)N/N=C/C=C/c1ccccc1", "activity change, negative = inhibition": "inactive: 11.2%"},
      {"smiles": "COc1ccc(S(=O)(=O)N(C)C[C@H]2Oc3ccc(NS(=O)(=O)c4cn(C)cn4)cc3C(=O)N([C@H](C)CO)C[C@@H]2C)cc1", "activity change, negative = inhibition": "inactive: -5.73%"},
      {"smiles": "OCC[C@H]1C[C@@H](O)[C@H](O)[C@@]2(CCc3ccccc3CO2)O1", "activity change, negative = inhibition": "inactive: -0.64%"},
      {"smiles": "COc1cccc(CNc2ncnc3ccc(-c4c(C)noc4C)cc23)c1", "activity change, negative = inhibition": "inactive: -11.9%"},
      {"smiles": "C#CCNC(=O)C1=C[C@H](c2ccc(C(F)(F)F)cc2)C[C@H](OCCCCO)O1", "activity change, negative = inhibition": "inactive: 8.55%"},
      {"smiles": "CC(C)n1cc(/C=C2/NC(=O)N(c3cccc(Cl)c3)C2=O)c2ccccc21", "activity change, negative = inhibition": "inactive: 11.7%"},
      {"smiles": "COC(=O)C1=C(C)N(Cc2ccccc2)C(=NCc2cc(OC)c(OC)c(OC)c2)N[C@H]1c1ccccc1", "activity change, negative = inhibition": "inactive: -3.6%"},
      {"smiles": "COc1ccc2nc(C)cc(SCC(=O)O)c2c1", "activity change, negative = inhibition": "inactive: 0.201%"},
      {"smiles": "CC1CCN(C(=O)c2[nH]cnc2C(=O)N[C@H](C)c2ccccc2)CC1", "activity change, negative = inhibition": "inactive: -0.483%"},
      {"smiles": "C#Cc1ccc([C@H]2C=C(C(=O)NCc3ccccc3)O[C@@H](OCC)[C@@H]2CCCO)cc1", "activity change, negative = inhibition": "inactive: -0.659%"},
      {"smiles": "O=C(c1ccccc1)[C@H]1CC=CC[C@H]1C(=O)O", "activity change, negative = inhibition": "inactive: -5.12%"},
      {"smiles": "N#C/C(=C\\N1CCOCC1)c1ccccc1", "activity change, negative = inhibition": "inactive: 0.0428%"},
      {"smiles": "CC(=O)/C(=C\\N(C)C)Sc1ccc(C)cc1", "activity change, negative = inhibition": "inactive: 5.96%"},
      {"smiles": "O=C(CCCN1C(=O)S/C(=C/C=C/c2ccccc2)C1=O)Nc1ccc(C(=O)O)cc1", "activity change, negative = inhibition": "inactive: -4.51%"},
      {"smiles": "CC(C)(C)OC(=O)C[C@@H]1C/C=C\\C[C@@H](CC(=O)N(CCO)Cc2ccccc2)C(=O)NC[C@@H](c2ccccc2)OC1=O", "activity change, negative = inhibition": "inactive: -1.99%"},
      {"smiles": "CN(C)CCC(c1ccc(Cl)cc1)c1ccccn1", "note": "(stereo not drawn)", "Potency": "inactive"}
    ]}
  ]
}
